The values that follow come from ChEMBL document CHEMBL4513135, “CO-ADD screening of IQOG CSIS (Spain) compounds”.

Structures are written as SMILES. Several values for one entry are separate records, joined by “and”; a condition that tells them apart may be missing. Identical values can stand only once. Some of the results follow. Potency and affinity values are given separately.

In the assay the test system is Acinetobacter baumannii. Conditions: Concentration 32 ug.mL-1, ASSAY_TEST Inhibition of Bacterial Growth, detection method Absorption (OD600), MEDIA CAMHB, plate type 384well, NBS, CORNING #3640, time 18 hr.

For the compound `c1ccc(Cn2ccc3ccccc32)cc1`, the Inhibition turned out to be 3.41%.
With `COc1ccc2c(c1)cc(CNc1ccccc1)n2C`, the Inhibition is listed as 15.42%.
Consider `COc1ccc2c(ccn2C)c1`, for which the Inhibition is listed as -2.86%.
For `CCOC(=O)c1c(C)[nH]c2ccc(OC)cc12`, the Inhibition is on record as -4.77%.
Consider `CCOC(=O)/C(C#N)=C\c1ccc(C)cc1`, for which the Inhibition came out at 5.75%.
Take `N#Cc1c(-c2ccccc2)c2ccc3ccccc3c2oc1=O`: the Inhibition was 0.26%.
Take `C=C1CNc2c(C#N)c(-c3ccccc3)c(C#N)c(=N)n21`: the Inhibition came out at 4.7%.
As to `N#Cc1c(N)nc(NCCCC2CCN(Cc3ccccc3)CC2)c(C#N)c1-c1ccccc1`, the Inhibition is listed as 1.64%.
Take `Cc1ccc2nc(Cl)c(/C=N/N)cc2c1`: the Inhibition is listed as 12.29%.
As for `N#Cc1cc(C#N)c(NC2CCN(Cc3ccccc3)CC2)nc1N`, where the note is “32 ug/mL”, the Inhibition is 7.41% and 4.81%.
For `Cn1ccnc1C1C(C#N)=C(N)Oc2c1ccc1cccnc21` (stereo unspecified), the Inhibition worked out at 2.45%.
As for `C#CCNc1nc(N)c(C#N)cc1C#N`, the Inhibition is reported as 4.34%.
With `N#Cc1cc(C#N)c(Cl)nc1N`, the Inhibition was found to be 3.66%.
In the case of `O=c1oc2cc(O)ccc2cc1-c1ccccc1`, the Inhibition is listed as -2.52%.
As for `Cl.Nc1c2c(nc3c1C(c1c(Cl)cccc1Cl)c1ccc4ccccc4c1O3)CCCC2` (stereo unspecified), the Inhibition was -11.82%.
For the compound `CCOC(=O)N/N=C/c1ccccc1`, the Inhibition was 1.66%.
In the case of `O=C1NC(=O)C(=Cc2ccccc2)N1`, the Inhibition is given as 0.06%.
Turning to `Cl.NC1(C(=O)O)CC1c1cccc(Cl)c1` (stereo unspecified), the Inhibition is reported as -7.94%.
For `N#C/C(=C\c1ccccc1Cl)C(=O)c1ccccc1`, the Inhibition is on record as -0.17%.
Take `CCCC(=O)NCc1c(-c2ccc(Cl)cc2)nc2ccccn12`: the Inhibition came to 12.94%.
`CNN=C1N=C(SCc2ccccc2)SC1=O`: the Inhibition is given as -0.03%.
Regarding `Cc1nc2c3c(C)nn(-c4ccccc4)c3ncn2n1`, the Inhibition is given as 0.13%.
As for `Cn1ccnc1C1c2ccc3ccccc3c2Oc2nc3c(c(N)c21)CCCCC3` (stereo unspecified), the Inhibition turned out to be 4.06%.
In the case of `Cc1nc(NO)c2c(C)nn(-c3ccccc3)c2n1`, the Inhibition is on record as -4.82%.
Turning to `CC1=C(C(=O)N2[C@@H]3C[C@H]4CCC3(CS2(=O)=O)C4(C)C)C(c2ccccc2)C(C#N)=C(N)O1` (stereo partly specified), the Inhibition is reported as 2.11%.
The same measure, in the same setting: in the case of `C#CCN(C)Cc1cc2cc(O)ccc2n1C.Cl` it was 11.48%; in that of `COc1nc2nc3c(c(N)c2cc1C#N)CCCC3.Cl`, 7.68%; in that of `COc1cc(C2c3ccc4ccccc4c3Oc3nc4c(c(N)c32)CCCC4)ccc1O.Cl` (stereo unspecified), -15.17%.
On the same count and under the same terms, in the case of `C#CCN(C)c1nc(Sc2ccccc2)c(C#N)c(-c2ccccc2)c1C#N` it was -22.96%.
As for `Cc1n[nH]c2c1C(c1ccc([N+](=O)[O-])cc1)C(C#N)=C(N)O2` (stereo unspecified), the Inhibition is -4.49%.
For `COC1=C(C#N)CC(C)C(=O)N1` (stereo unspecified), the Inhibition stood at 2.17%.

What is called Inhibition is the relative decrease from the control value, in per cent.
